According to article PMC5540273 (PLoS ONE, 2017):
For some of these results: This list holds what a sample rich in strong results left over. The list shows a part of the results, in another mix than the full data.

Experiments:
Details in all cases: concentration: 1 μM,replicates: in singlicate; n = 1
LZK = tested on: T1, LZK
T1 construct: gene MAP3K13

MAK = tested on: MAK
MAP3K15 = tested on: MAP3K15
MAP3K1 = tested on: MAP3K1
MAP3K2 = tested on: MAP3K2
MAP3K3 = tested on: MAP3K3
MAP3K4 = tested on: MAP3K4
MAP4K2 = tested on: MAP4K2
MAP4K3 = tested on: MAP4K3
MAP4K4 = tested on: MAP4K4
MAP4K5 = tested on: MAP4K5
MAPKAPK2 = tested on: MAPKAPK2
MAPKAPK5 = tested on: MAPKAPK5
MARK1 = tested on: MARK1
MARK2 = tested on: MARK2
MARK3 = tested on: MARK3
MARK4 = tested on: MARK4
MAST1 = tested on: MAST1
MEK1 = tested on: T2, MEK1
T2 construct: gene MAP2K1

MEK2 = tested on: T3, MEK2
T3 construct: gene MAP2K2
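Also: KINOMEscan kinase panel screen.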

| SMILES | %Inh (LZK) | %Inh (MAK) | %Inh (MAP3K15) | %Inh (MAP3K1) | %Inh (MAP3K2) | %Inh (MAP3K3) | %Inh (MAP3K4) | %Inh (MAP4K2) | %Inh (MAP4K3) | %Inh (MAP4K4) | %Inh (MAP4K5) | %Inh (MAPKAPK2) | %Inh (MAPKAPK5) | %Inh (MARK1) | %Inh (MARK2) | %Inh (MARK3) | %Inh (MARK4) | %Inh (MAST1) | %Inh (MEK1) | %Inh (MEK2) |
| --- | --- | --- | --- | --- | --- | --- | --- | --- | --- | --- | --- | --- | --- | --- | --- | --- | --- | --- | --- | --- |
| O=C1NC(=O)C(c2ccccc2)=C1Nc1cc(Cl)c(O)c(Cl)c1 [SB-390530] | 42% | 30% | 13% | 21% | 6% | 19% | 10% | 0% | 0% | 5% | 10% | 1% | 0% | 0% | 0% | 36% | 0% | 0% | 3% | 0% |
| O=C(O)c1ccc(-c2nc(-c3ccc(F)cc3)c(-c3ccncc3)[nH]2)cc1 [SB-202620] | 0% | 11% | 11% | 16% | 33% | 12% | 0% | 0% | 24% | 10% | 12% | 15% | 0% | 26% | 22% | 15% | 36% | 64% | 25% | 48% |
| O=C1NC(=O)C(c2ccccc2)=C1Nc1ccc(Cl)c(C(=O)O)c1 [SB-390532] | 43% | 20% | 0% | 3% | 0% | 0% | 16% | 0% | 0% | 0% | 0% | 0% | 0% | 0% | 0% | 3% | 0% | 9% | 0% | 0% |
| Cc1cc(C)cc(Oc2nccc(-c3c(-c4ccc(F)cc4)ncn3C3CCNCC3)n2)c1.O=C(O)C(F)(F)F.O=C(O)C(F)(F)F.O=C(O)C(F)(F)F [SB-284851] | 0% | 27% | 0% | 0% | 0% | 7% | 23% | 0% | 0% | 20% | 36% | 5% | 0% | 0% | 0% | 49% | 33% | 19% | 0% | 23% |
| COc1ccc(C2=C(Nc3cccc(Cl)c3)C(=O)NC2=O)cc1 [SB-326892] | 0% | 16% | 0% | 17% | 22% | 12% | 23% | 10% | 0% | 2% | 7% | 0% | 0% | 0% | 0% | 11% | 21% | 0% | 0% | 13% |
| O=C1NC(=O)C(c2ccccc2Cl)=C1Nc1ccccc1 [SB-376715] | 4% | 31% | 0% | 11% | 9% | 0% | 21% | 4% | 0% | 20% | 9% | 8% | 0% | 35% | 20% | 0% | 12% | 0% | 34% | 13% |
| O=C1NC(=O)C(c2ccc(Cl)cc2)=C1Nc1ccc(O)c(Cl)c1 [SB-405367] | 0% | 16% | 0% | 11% | 25% | 21% | 17% | 0% | 0% | 0% | 0% | 12% | 0% | 8% | 14% | 0% | 0% | 34% | 0% | 20% |
| CS(=O)(=O)c1ccccc1-c1nc(-c2ccc(F)cc2)c(-c2ccncc2)[nH]1 [SB-213663] | 7% | 0% | 0% | 0% | 0% | 27% | 0% | 0% | 0% | 29% | 1% | 0% | 0% | 0% | 48% | 0% | 0% | 24% | 0% | 0% |
